Out of some 220,000 compounds screened, about 2,300 (1%) were called active. Inconclusive results (about 6%) are left out. The call rests on the fitted dose curve; in most records, active means well fitted inhibition curve with a large enough effect; inconclusive means small, poorly fitted or top-dose-only effect, or effect the other way; inactive means no such curve, though single readings can be large or run the other way. Only a part is listed here, and it is no random draw. Some compounds were tested as several samples or in several runs, with calls that do not always agree.
Each compound was assayed against Neuropeptide S receptor (Homo sapiens) (UniProt Q6W5P4) (assay: qHTS Assay for Antagonists of the Neuropeptide S Receptor: cAMP Signal Transduction). Conditions: CHO-NPSR cells, cAMP TR-FRET, antagonist mode; series mostly up to 38.3 µM; activity change, negative = inhibition: at the top concentration.
From the text: NIH Chemical Genomics Center [NCGC] NIH Molecular Libraries Probe Production centers Network [MLPCN] MLPCN Grant: X01-DA026210-01 Assay Submitter (PI): Heilig, Markus Alexander NCGC Assay Overview: Neuropeptide S receptor (NPSR), previously known as GPR154, is a recently de-orphanized G protein coupled receptor. Its endogenous ligand is the 20 amino acids peptide Neuropeptide S (NPS). […] NPS and its receptor are found in various tissues. Specifically they are highly expressed in brain areas that have been implicated in modulation of arousal, stress and anxiety. Central administration of NPS in mice produces an unusual profile of activity by inducing wakefulness and arousal, while at the same time suppressing anxiety. Therefore, NPSR may represent a novel drug target for the treatment of sleep and anxiety disorders. To identify NPSR antagonists, we developed a cell-based cAMP assay. NPS can stimulate the production of cAMP in Chinese hamster ovary cells stably expressing NPS receptor. This change in intracellular cAMP level can be detected by a homogeneous LANCE cAMP assay based on the TR-FRET (time resolved fluorescence resonance energy transfer) between a europium-labeled cAMP tracer complex and a cAMP-specific antibody labeled with Alexa Fluor 647. The europium-labeled cAMP tracer complex is formed by the tight interaction between Biotin-cAMP (b-cAMP) and streptavidin labeled with Europium-W8044 chelate (Eu-SA). Light pulse at 320 nm excites the europium of the cAMP tracer and the energy emitted is transferred to the Alexa molecule bound to the cAMP antibody, generating a TR-FRET signal at 665 nm. Residual energy from the europium will produce a light at 620 nm. The native unlabeled cAMP from cell lysates competes with the europium-cAMP tracer for antibody binding and reversely reduces the emission signal of Alexa by interrupting FRET between the two labeled molecules. Both emission signals from the FRET donor (620 nm) and the acceptor (665 nm) can be detected by a plate reader in the TRF mode. Expression of result in fluorescence ratio (665 nm/620 nm) helps to normalize differences due to cell density and reagent dispensing. This assay was successfully optimized to a 1536-well plate format.
NCGC Assay Protocol Summary: A Chinese hamster ovary (CHO) cell line stably expressing the NPS receptor (CHO-NPSR) was obtained from Dr. Heilig lab at NIAAA and maintained in F-12 Kaighn's media (Invitrogen, Carlsbad, CA, 21127) supplemented with 10 % FBS, 100 units/ml penicillin, 100 ug/ml streptomycin and 250 ug/ml geneticin at 37C, 5% CO2 in a humidified atmosphere. Before the assay, aliquots of cells were frozen and stored at -135C. The assay was performed in 1536-well format. Data are reported for both the ratio of the two emission wavelengths, and also for the component 'donor' channel, Em2=620. Data were normalized to the controls for basal activity (DMSO only) and 100% inhibition (No NPS control). IC50 values were determined from concentration-response data modeled with the standard Hill equation. NPS 1536-well assay protocol: (1) Fresh or frozen CHO-NPSR cells were suspended in F-12 Kaighn's media supplemented with 10 % FBS, 100 units/ml penicillin and 100 ug/ml streptomycin. Cells were plated at 4 ul/well (1200 cells) to white, tissue culture treated 1536-well plates, and then cultured at 37C, 5 % CO2 for 16 to 30 hours. (2) Add 23 nl/well of compound in DMSO solution. The final titration for each compound was between 0.6 nM and 46 uM. (3) Add 1 ul of stimulation reagent (1X HBSS buffer, 5 mM HEPES, 0.1% BSA, 500 uM RO-201724 (Sigma-Aldrich, B8279), 1.5% Alexa 647-labeled anti-cAMP antibody (from Perkin Elmer), 100 nM NPS) (4) Incubation at 37C, 5 % CO2 for 60 min. (5) Add 1 ul/well detection reagent. Detection reagent was prepared by adding biotin labeled cAMP (4%), streptavidin labeled with Europium-W8044 chelate (1.33%) and TritonX-100 (1%) to detection buffer. […]
Further: nearly all actives have a fitted effect of over 50% in size.
On the % scale 0 is the no-effect control and ±100 the full control effect; potency means the concentration at half of the fitted maximal effect.

Chain of UniProt Q6W5P4 (Q6W5P4 whole entry, looked up): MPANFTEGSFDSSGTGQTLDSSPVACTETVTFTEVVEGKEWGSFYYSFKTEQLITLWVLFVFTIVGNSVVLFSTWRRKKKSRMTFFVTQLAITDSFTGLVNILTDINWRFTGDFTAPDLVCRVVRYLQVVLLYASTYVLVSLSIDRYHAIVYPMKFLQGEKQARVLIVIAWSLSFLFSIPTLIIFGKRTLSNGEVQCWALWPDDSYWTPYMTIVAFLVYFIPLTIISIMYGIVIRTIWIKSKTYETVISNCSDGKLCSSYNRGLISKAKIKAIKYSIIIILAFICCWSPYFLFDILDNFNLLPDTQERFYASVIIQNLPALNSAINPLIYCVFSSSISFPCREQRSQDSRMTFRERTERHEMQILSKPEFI

**Q.** How did the “activity change, negative = inhibition” value turn out when `Cc1ccccc1OCc1n(CC(=O)OC2CC(C)CCC2C(C)C)c2ccccc2[n+]1C` (configuration not stated) was run?
**A.** Its value is inactive: -52.3%.

**Q.** For `CCO[C@@H]1OC(C(=O)N2CCCCCCC2)=C[C@H](C2CCCCC2)[C@H]1CCCO`, which “activity change, negative = inhibition” value is on record?
**A.** The value was inactive: 51.5%.

**Q.** `CN1CCC(=C2c3ccccc3CC(=O)c3sccc32)CC1` was tested. Which Potency did it give?
**A.** The Potency was “inactive”.

**Q.** For `S=C(Nc1ccccc1)Nc1nccs1`, which “activity change, negative = inhibition” value is on record?
**A.** Its value is inactive: -19.6% [at 46.1 µM].

**Q.** `O=C(NCc1ccccc1)C1=C[C@H](c2ccc(C(F)(F)F)cc2)C[C@H](OCc2ccc(CO)cc2)O1` was tested. Which “activity change, negative = inhibition” value did it give?
**A.** The value was inactive: 43.6%.

**Q.** For `CCOC(=O)/C(C#N)=C/c1c(OCC)n(CC)c2ccccc12`, which “activity change, negative = inhibition” value is on record?
**A.** Its value is inactive: -40.1%.

**Q.** `O=C1C=C(Nc2ccccc2)c2ccccc2C1=O` was tested. Which Potency did it give?
**A.** Its Potency is active: 10 µM.

**Q.** Which “activity change, negative = inhibition” value does the source give for `CCNC(=O)/C(=C\c1ccc2c(c1)OCO2)NC(=O)c1ccc(Br)cc1` here?
**A.** The value was inactive: 2.08% [at 46.1 µM].

**Q.** How did the “activity change, negative = inhibition” value turn out when `O=C(C1=C[C@@H](c2ccc(C(F)(F)F)cc2)C[C@@H](OCCCCO)O1)N1CCN(Cc2ccccc2)CC1` was run?
**A.** The value was inactive: 57.6%.

**Q.** Which Potency does the source give for `O=C1CCc2cc(OCCCCc3nnnn3C3CCCCC3)ccc2N1` here?
**A.** Its Potency is “inactive”.

**Q.** How did the Potency turn out when `CCN(CCCNC(=O)C1c2ccccc2C(=O)N(CCOC)C1c1ccc(F)cc1)Cc1ccccc1` (configuration not stated) was run?
**A.** The Potency was active: 10 µM.

**Q.** Which “activity change, negative = inhibition” value does the source give for `O=C(N/C(=C/c1cccc([N+](=O)[O-])c1)C(=O)N1CCCCC1)c1cccs1` here?
**A.** The value was inactive: 44.9%.

**Q.** For `O=C(Nc1ccccc1)C1=C[C@H](c2ccc(C(F)(F)F)cc2)C[C@H](OCc2ccc(CO)cc2)O1`, which “activity change, negative = inhibition” value is on record?
**A.** Its value is inactive: -48.9%.

**Q.** Which “activity change, negative = inhibition” value does the source give for `CCOC(=O)c1[nH]c(C)c(CCC(=O)O)c1C` here?
**A.** Its value is inactive: 0.162% [at 46.1 µM].

**Q.** `CCOC(=O)/C(C#N)=C1\C=CN(C)C(C)=N1` was tested. Which “activity change, negative = inhibition” value did it give?
**A.** Its value is inactive: -1.3% [at 46.1 µM].

**Q.** For `C/C=C(/C)C(=O)O[C@@H]1c2c(ccc3ccc(=O)oc23)OC(C)(C)[C@@H]1OC(=O)/C(C)=C\C`, which “activity change, negative = inhibition” value is on record?
**A.** Its value is inactive: -33.8%.

**Q.** For `CN(C)CC[C@@H](c1ccc(Cl)cc1)c1ccccn1`, which “activity change, negative = inhibition” value is on record?
**A.** Its value is inactive: 8.86% [at 46.1 µM].

**Q.** For `CCOC(=O)c1ccc(N=c2sc(C(=O)OC)cc(=O)n2CCCN2CCOCC2)cc1`, which “activity change, negative = inhibition” value is on record?
**A.** The value was inactive: -10.8% [at 46.1 µM].

**Q.** Which “activity change, negative = inhibition” value does the source give for `O=C(C1=C[C@@H](c2coc3ccccc3c2=O)C[C@@H](OCCCCO)O1)N1CCN(Cc2ccc3c(c2)OCO3)CC1` here?
**A.** The value was inactive: 8.79%.

**Q.** Which “activity change, negative = inhibition” value does the source give for `COC(=O)c1sccc1NC(=O)/C=C/c1ccc(Cl)cc1Cl` here?
**A.** The value was inactive: 1.87% [at 46.1 µM].

**Q.** With `Cc1ccccc1C(OCCN(C)C)c1ccccc1` (configuration not stated) as the compound, how does the Potency read?
**A.** Its Potency is “inactive”.

**Q.** `CC(=O)SC1CC2=CC(=O)CCC2(C)C2CCC3(C)C(CCC34CCC(=O)O4)C12` (configuration not stated) was tested. Which “activity change, negative = inhibition” value did it give?
**A.** The value was inactive: -41.4%.

**Q.** With `CCN(CC)S(=O)(=O)c1ccc(NC(=O)Nc2cccc(C(F)(F)F)c2)cc1` as the compound, how does the Potency read?
**A.** The Potency was active: 15.8 µM.

**Q.** `CCOC(=O)c1c(NC(=O)c2ccc(N3C(=O)[C@@H]4[C@H](C3=O)[C@H]3C=C[C@@H]4C3)cc2)sc2c1CCCC2` was tested. Which “activity change, negative = inhibition” value did it give?
**A.** Its value is inactive: -11.3%.

**Q.** For `COCC(=O)O[C@]1(CCN(C)CCCc2nc3ccccc3[nH]2)CCc2cc(F)ccc2[C@@H]1C(C)C`, which Potency is on record?
**A.** The Potency was active: 10 µM.

**Q.** With `Cc1ccc(NC(=O)C2=C(c3ccccc3)S(=O)(=O)CCS2(=O)=O)cc1` as the compound, how does the Potency read?
**A.** Its Potency is active: 10 µM.

**Q.** How did the “activity change, negative = inhibition” value turn out when `CCO[C@H]1OC(C(=O)NCc2ccccc2)=C[C@@H](c2ccc(Br)cc2)[C@@H]1CCCO` was run?
**A.** The value was inactive: 2.45%.

**Q.** For `CCO[C@H]1OC(C(=O)NCc2ccccc2)=C[C@@H](c2ccc(C(F)(F)F)cc2)[C@@H]1CCCO`, which “activity change, negative = inhibition” value is on record?
**A.** The value was inactive: 51.7%.

**Q.** With `CC(=O)OCC1=C(C(=O)O)N2C(=O)[C@@H](NC(=O)Cc3cccs3)[C@H]2SC1` as the compound, how does the “activity change, negative = inhibition” value read?
**A.** Its value is inactive: -6.98%.

**Q.** Which “activity change, negative = inhibition” value does the source give for `CCC(=O)/C=C1/Sc2ccc(OC)cc2N1CC` here?
**A.** Its value is inactive: -15.9% [at 46.1 µM].

**Q.** With `COc1ccc(NS(=O)(=O)c2ccc(NC(=S)NC(=O)/C=C/c3ccccc3)cc2)nn1` as the compound, how does the Potency read?
**A.** The Potency was active: 7.94 µM.

**Q.** Which “activity change, negative = inhibition” value does the source give for `[2H]c1c([2H])c([2H])c(-c2nc(N3CCCCCC3)sc2C(=O)c2ccccc2)c([2H])c1[2H]` here?
**A.** The value was inactive: -28.3% [at 46.1 µM].

**Q.** `Cc1ccc(Cl)cc1NC(=O)COC(=O)C12CC3CC(CC(C3)C1)C2` was tested. Which “activity change, negative = inhibition” value did it give?
**A.** The value was inactive: -20.9% [at 46.1 µM].

**Q.** How did the “activity change, negative = inhibition” value turn out when `NC(CO)C(=O)NNCc1ccc(O)c(O)c1O` (configuration not stated) was run?
**A.** Its value is inactive: 0.362%.

**Q.** With `O=C(O)/C=C/c1cnc[nH]1` as the compound, how does the “activity change, negative = inhibition” value read?
**A.** Its value is inactive: -15%.

**Q.** For `CN(C)CCCNC(=O)c1ccc(-c2nc(-c3ccc(Cl)cc3)cs2)cc1`, which Potency is on record?
**A.** Its Potency is active: 10 µM.

**Q.** Which “activity change, negative = inhibition” value does the source give for `CC(=O)n1cc([C@H]2C=C(C(=O)N3CCN(Cc4ccccc4)CC3)O[C@@H](OCc3ccc(CO)cc3)C2)c2ccccc21` here?
**A.** The value was inactive: 48.8%.

**Q.** With `N=C1S/C(=C\c2ccco2)C(=O)N1c1nccs1` as the compound, how does the Potency read?
**A.** The Potency was active: 6.31 µM.

**Q.** With `O=C(O)CCn1cc(/C=C/C(=O)c2ccc(Cl)cc2)c(-c2cccc(Br)c2)n1` as the compound, how does the “activity change, negative = inhibition” value read?
**A.** Its value is inactive: -57.8%.

**Q.** `Cc1[nH]c2ccc(F)cc2c1CCN(Cc1cccnc1)C(=S)Nc1cccc(F)c1` was tested. Which Potency did it give?
**A.** Its Potency is active: 10 µM.

**Q.** With `COc1cc(/C=C2/CCC/C(=C\c3cc(O)c(OC)c(Cl)c3)C2=O)cc(Cl)c1O` as the compound, how does the Potency read?
**A.** The Potency was active: 7.94 µM.

**Q.** For `CC(N=C(NC#N)Nc1ccncc1)C(C)(C)C` (configuration not stated), which “activity change, negative = inhibition” value is on record?
**A.** The value was inactive: 17.1%.

**Q.** Which Potency does the source give for `CC1CCC/C=C/C(=O)c2c(O)cc(O)cc2CC(=O)O1` (configuration not stated) here?
**A.** The Potency was active: 5.01 µM.

**Q.** With `COc1ccc(CNC(=O)CSc2nc(-c3ccccc3)cc(-c3cccs3)c2C#N)cc1` as the compound, how does the Potency read?
**A.** The Potency was active: 10 µM.

**Q.** How did the “activity change, negative = inhibition” value turn out when `CC(C)(C)[C@@H]1C=C(C(=O)NCc2ccccc2)O[C@H](OCc2ccc(CO)cc2)C1` was run?
**A.** The value was inactive: 38.5%.

**Q.** `CN(C)CCCN1c2ccccc2Sc2ccc(Cl)cc21` was tested. Which “activity change, negative = inhibition” value did it give?
**A.** Its value is inactive: -0.486% [at 46.1 µM].

**Q.** Which “activity change, negative = inhibition” value does the source give for `Nc1ccn([C@@H]2O[C@H](CO)[C@@H](O)[C@@H]2O)c(=O)n1` here?
**A.** The value was inactive: -19.3%.

Source: PubChem BioAssay AID1461 (National Center for Advancing Translational Sciences (NCATS), 2008)
